Assay results as given in the supplement of paper PMC11417369.
± gives the standard deviation of the averaged measurements. The list shows a part of the results.

System: PfAP2-EXP AP2 domain (GST-tagged)
Experiment: gcPBM binding intensity (ln(normalized median fluorescence intensity)); higher = stronger DNA binding
In short: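 In this array assay, P. falciparum DNA-binding domains with a GST tag, expressed in E. coli, were applied for 1 h to primer-extended double-stranded 36-bp intergenic genomic probes and negative controls on an Agilent 4 × 180k array. Bound protein was visualised with Alexa488 anti-GST antibody at 488 nm. Binding intensity is the highest Masliner-normalised natural-log median intensity across replicate spots of either probe orientation.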

Sequence | gcPBM binding intensity (ln)
TTATATTATGTTCAATCAAAAATTATTTTTAAAAAA [XGTACX_negctrl_site595] | 8.29 ± 0.25
TATATATAAAAACACACACACACACCCTATAATTAT [CACACA_site4063] | 8.89 ± 0.61
TTTCAAATTTAATACACACACAAGTATATATTTATC [CACACA_site3947] | 8.3 ± 0.43
TTGTGTTATCACACGAAGGGGATAAGACATAAATGT [TGCATGCA_negctrl_site368] | 8.49 ± 0.49
AATAATACATCCTTAGTGCAGAAATAAAAATTAAGC [GTGCAC_site9955] | 8.77 ± 0.3
TTTTCATTTGTGACAGTGCAAAATGTTATATTAAAA [GTGCAC_site9647] | 8.54 ± 0.29
TATAAAATGATGATATGTACTTATGTAGTTTTTTTA [XGTACX_site8711] | 8.07 ± 0.28
AATATATGGTTTCATGATATTAAATTCAAAATAATG [CACACA_negctrl_site318] | 8.21 ± 0.42
TATTTATTGTGACACTTATATTATTTTATGATTAAA [CACACA_negctrl_site525] | 8.48 ± 0.28
TTTGTAATAAATAAGAGTACAAGTATGGTTCCACTA [XGTACX_site2579] | 8.47 ± 0.35
TGTATACATTCTGAATGTACGGAACACCTCATAACT [XGTACX_site7240] | 8.64 ± 0.38
TGGAACCTTTAAAATACACACCCAAATCCTTTGAAA [CACACA_site7671] | 8.38 ± 0.52
ATTATTTGAAACTATTGTACATTTAAAAACATTTTT [XGTACX_site4896] | 8.47 ± 0.35
AAAAAAAAAAAAAACACACACATATAAATATAAATA [CACACA_site6972] | 8.38 ± 0.53
ATTGGACTATAAATAGGTACACATATATATATATAT [XGTACX_site7562] | 10.4 ± 0.33
TCATATATTCAAAAATTTAAAGTTAATAAAACTTGA [CACACA_negctrl_site1546] | 7.96 ± 0.42
TAAATACTTGTATATAGTACAAGTTGTTTTTTTTAA [XGTACX_site5643] | 7.96 ± 0.38
CATATATATTTTATTTGTACGTATAAAAAAACAAAA [XGTACX_site4253] | 8.8 ± 0.25
ATATGAAAAAGAACTTGTACTAAAGTGGCATATTAT [XGTACX_site8520] | 8.9 ± 0.39
TTAACAAATAAACACACACACACACCCAAAAAAAAA [CACACA_site8068] | 8.63 ± 0.45
ATAAAAAAAAAAACAGTAAAATTATAATTATAATTA [TGCATGCA_negctrl_site356] | 8.47 ± 0.37
TATATCCCTTAGAATACACACCCATATGAGTGTGAA [CACACA_site8965] | 8.21 ± 0.45

Sequence | gcPBM binding intensity (ln)
TAATGATAAATACATACACACAAAAAATGATATATA [CACACA_site7258] | 8.6 ± 0.32
AATGTAAAATCTTCATATACATTTAAGTCTGTATTT [TGCATGCA_negctrl_site183] | 8.04 ± 0.16
ACAAAAATTAAATAAAGTACATTTTTAAAATACGTA [XGTACX_site3880] | 8.51 ± 0.36
AAAAGCACAAAAAATACACACACAAAAAATAAAAAA [CACACA_site8545] | 8.5 ± 0.57
TTATAAAAATTTAGTTGTACATGTCAAATTATCAAT [XGTACX_site7229] | 8.51 ± 0.44
TAAGACAATAAATGCTGTACAATTGAATATCTTGGA [XGTACX_site636] | 8.62 ± 0.33
TATTTTATTATTATTATTTCTTTATAGTGTATTCTA [CACACA_negctrl_site517] | 8.43 ± 0.62
GGATAGGCATAACATAGTACGTACAAATATATATAT [XGTACX_site454] | 9.51 ± 0.085
TATTTTATTATTATTATTAGTATGATTTCTTTATAG [CACACA_negctrl_site550] | 8.27 ± 0.47
TTTTCGTAACTGATTCAACACACAAAAGGGGGAAAA [CACACA_site8517] | 9.06 ± 0.2
AATATATAGCTAAAAACACACAAATATATACACATA [CACACA_site9203] | 8.63 ± 0.45
TTTTTTGTACCAAAAAAAAAAAAAAGAAAAAAAAAC [CACACA_negctrl_site1416] | 8.35 ± 0.39
TATAAAATAAATTGTGCACACATATTTATAAATATG [CACACA_site2330] | 8.8 ± 0.18
TATATGGAAAATTAAAGTACTAAAGAATAAATAGAA [XGTACX_site8796] | 8.85 ± 0.45
TATAGATACATATACACACACACACCGACATATATA [CACACA_site9138] | 8.69 ± 0.43
AATAATAGAAGCACCCACCCACCACCACCCACACAT [CACACA_negctrl_site1033] | 9.71 ± 0.41
GAGAAACTTGTTTAAACATGCACAAAAAAAAAAAAA [TGCATGCA_site340] | 8.82 ± 0.47
ACGATGAATATGTAAAGTACGCAAATGTAACAATAT [XGTACX_site728] | 9.03 ± 0.38
AAATAAAAAAAGGGAACATGCAATATGTACAAATAT [TGCATGCA_site869] | 9.34 ± 0.52
TCATAGGTTCAAAAGGGTACATTAATACATACATAT [XGTACX_site2236] | 8.57 ± 0.47
GTAGTTACATATAGGGTGCTCCAATAGTTGACCTCG | 8.44 ± 0.29
TCTTTTTTCTTTTTTTCACACATTATTTTTTAAATA [CACACA_site5197] | 8.75 ± 0.41

Sequence | gcPBM binding intensity (ln)
AGCATTTTTCATTTTGCACACATGTTTTATGGGTAT [CACACA_site5839] | 8.9 ± 0.36
CATATATATTGATATGCACACCTATGTATTGATGTA [CACACA_site8269] | 8.54 ± 0.33
AGCTGAAAAAAAAGCTTGCACACGTATTTGCTTTAT [CACACA_site1512] | 8.55 ± 0.59
GTTTTTTATATAAGGTGGTCAACATTGTAATGTTAA [XGTACX_site3204] | 8.68 ± 0.28
AATATGTAGTAATCAAGTACTAATGTCTTAATTCGG [XGTACX_site308] | 8.56 ± 0.32
TTTTTTTGTTATATCCTGCACTTCTTAACTATATTA [GTGCAC_site9807] | 9.05 ± 0.39
AATAATAAGAATAACGCATGCACATATAATATAGAA [TGCATGCA_site3] | 9.54 ± 0.2
CATATTATATTCTGCTTACACACATATATATATATA [CACACA_site3059] | 10.1 ± 0.42
AAATTACACATCCATACACACATATTTTTTTTAATT [CACACA_site5242] | 8.65 ± 0.47
ATATAAATTGGCAATAGTACATAAAGGCATAGAAAG [XGTACX_site2674] | 9.21 ± 0.41
GTATATATGTATATGTGTACACATATTCTTAACTCA [XGTACX_site309] | 8.88 ± 0.33
TTAATTTATTATCTTTGTACACAATTAAAAAAAAAA [XGTACX_site3469] | 8.28 ± 0.38
TTTTATTATAATAATTGTACAAAAATTATTTAATAT [XGTACX_site6054] | 8.19 ± 0.36
ATAAATATACATTATACCGACCATGTGGATATTATA [XGTACX_negctrl_site241] | 8.43 ± 0.49
AAAAAAAAAAAAAAAAGTACAAGCATTGCGTTTTAA [XGTACX_site6075] | 8.83 ± 0.35
AAAAAAAAAAAAAAAACACACATACACGCACGCACA [CACACA_site7569] | 8.87 ± 0.15
GTATATATATACCATTGTACTTTCGTAAAAATATTT [XGTACX_site4846] | 8.83 ± 0.48
AGAAAAAAAAAAAAAAAAATATATATATATATATAT [TGCATGCA_negctrl_site411] | 10.1 ± 0.36
ATATATCAATATGGAATATATATATATATATATATA [TGCATGCA_negctrl_site502] | 9.97 ± 0.47
TTTCTATTTATTAATACATGCAAAATAAAGTAAAGT [TGCATGCA_site209] | 9.14 ± 0.13
TTTTGGTTTTGTTCTACACACATAAAAAAAAAAAAG [CACACA_site2276] | 8.38 ± 0.4
ATATATATAAATAAATGTACATAAATAATATATTAT [XGTACX_site5419] | 8.86 ± 0.41

Sequence | gcPBM binding intensity (ln)
TATATATATATATATATATTTATGTATTTATTTAAT [TGCATGCA_negctrl_site179] | 10.1 ± 0.34
TTATTTTTATATTTTAATTTTAAAAAAATTTTAATT [CACACA_negctrl_site777] | 8.04 ± 0.46
ATTATACATATTATATGTACATATATAAATAAATAA [XGTACX_site7076] | 8.58 ± 0.31
ATTTTTTATGTTAATGCATGCTCATGTGTATTTCAT [TGCATGCA_site751] | 9.46 ± 0.67
AAAGTAATAATGATTTGTACATATATATATATATAT [XGTACX_site8821] | 10.1 ± 0.35
TAATTAGATTATTTTTGTACATATTATTATAGGTTA [XGTACX_site2077] | 8.34 ± 0.38
AGATATTATAAAATATGTACATATATATATATATAT [XGTACX_site2088] | 10.1 ± 0.33
AAATATAACATCATCACACACATATACTTTATATGC [CACACA_site1126] | 8.56 ± 0.3
AGCTTCATATTATGGAGTACTATTAAAAATAAATAA [XGTACX_site2649] | 8.46 ± 0.35
TTATCTTTTTTCGTTTGTACGTAACCATATTACTAT [XGTACX_site8853] | 9.02 ± 0.32
AAAAATAATTATTCGTGTACAAAAAAAAAAATATAA [XGTACX_site439] | 8.46 ± 0.32
ATGCAAATGTGCATCACACACACTAATGGGTATGTA [CACACA_site2893] | 8.39 ± 0.38
GGAATATATATACATACACACATATATATATATATA [CACACA_site1666] | 10.1 ± 0.33
AACAAATTTATCCAAAGTACAAAATATCATTTCTTA [XGTACX_site4543] | 8.07 ± 0.42
ATTATAATTATATATGCATGTAGCATTTTCTATTTT [TGCATGCA_site66] | 8.74 ± 0.46
AACAACATGTAGACGCGTACCAACATCAGATCCTAT [XGTACX_site4071] | 8.79 ± 0.52
TTCTTTATTTATCATTATAAGAAGAGTTGATTTGTT [XGTACX_negctrl_site555] | 8.38 ± 0.43
TTATAATATAGCAATTATTAAATAGGATCAAATGAA [CACACA_negctrl_site632] | 8.46 ± 0.46
GGAAAATCTAATCATTTAATATTTATTTATCTAATT [GTGCAC_negctrl_site553] | 8 ± 0.4
ATTTTATATAATACATGTACAAAAGTTTAAATTTAT [XGTACX_site6196] | 8.79 ± 0.22
TATAAATACTAAAAAAGTACAAAATTTCATAAAAAA [XGTACX_site2709] | 8.57 ± 0.31
